Laboratory results as given in the Bradley open melting point set (2014).

SMILES | melting point
C=CCC=C [1,4-pentadiene] | -148 °C
C#CCCC [1-pentyne] | -106 °C
CC#CCC [2-pentyne] | -109 °C
C=CCC=C [Penta-1,4-diene] | -148 °C
